Test results taken from PubChem BioAssay AID463173 (ICCB-Longwood Screening Facility, Harvard Medical School, 2010).
Among all 52,000 compounds or so, about 1,700 (3.3%) were called active. Rule as the data show it: active = survival mostly below about 52% (no sharp cut-off); inactive = mostly above about 56%. The list shows a part of the results.

system: Wild type; assay: growth inhibition of S. aureus wild type versus tarO mutant, primary screen, teichoic acid synthesis inhibitors, RN4220, OD600 (AID 463173); conditions: S. aureus RN4220 wild type/DeltatarO growth, OD600, 18 h, hits give low values, screened at 18.75 µg/mL (by protocol)

Question: For `Cc1ccc(Cl)cc1-n1ncc2c(N3CCC(C(N)=O)CC3)ncnc21`, which survival is on record?
Answer: inactive: 85%

Question: Which survival does the source give for `O=C(CCn1c(=O)c2cccn2c2cccnc21)N1CCN(c2ccc(Cl)cc2)CC1` here?
Answer: inactive: 69%

Question: `CCOc1ccccc1NC(=O)CSc1nccn1Cc1ccc(F)cc1` was tested. Which survival did it give?
Answer: inactive: 84%

Question: How did the survival turn out when `O=C(OCC1CCCO1)c1ccc2c(c1)N(Cc1ccccc1F)C(=O)c1ccccc1S2(=O)=O` (stereo not drawn) was run?
Answer: inactive: 68%

Question: Which survival does the source give for `Cc1cccc(CNC(=O)c2cnc3sc(N4CCOCC4)nn3c2=O)c1` here?
Answer: inactive: 119%

Question: `Cc1ccccc1C(=O)Nc1ccc(C(=O)OCc2cc(=O)n3c4c(sc3n2)CCCC4)cc1` was tested. Which survival did it give?
Answer: inactive: 128%

Question: For `Cc1ccc(-n2c(=O)c3ccc(C(=O)NCc4ccccc4Cl)cc3n(CC(N)=O)c2=O)cc1`, which survival is on record?
Answer: inactive: 90%

Question: With `CCOc1nc(Nc2ccc(OC)cc2)nc(N2CCOCC2)n1` as the compound, how does the survival read?
Answer: inactive: 109%

Question: With `COc1ccc(NC(=O)C2CCN(C(=O)c3sc4nc[nH]c(=O)c4c3C)CC2)cc1Cl` as the compound, how does the survival read?
Answer: inactive: 85%

Question: `CN(CC(=O)Nc1ccc(Br)cc1)S(=O)(=O)c1cccc2nsnc12` was tested. Which survival did it give?
Answer: inactive: 66%

Question: Which survival does the source give for `CCC(c1nnnn1C(C)(C)CC)N1CCN(c2ccccc2)CC1` (stereo not drawn) here?
Answer: inactive: 105%

Question: Which survival does the source give for `O=C(NC1CCCC1)C(c1ccccc1)N(Cc1ccccc1F)C(=O)c1ccco1` (stereo not drawn) here?
Answer: inactive: 118%

Question: With `Cc1cc2oc(C(=O)N(Cc3ccc(N(C)C)cc3)CC3CCCO3)c(C)c2cc1Cl` (stereo not drawn) as the compound, how does the survival read?
Answer: inactive: 96%

Question: How did the survival turn out when `CN1C(=O)Cc2cc(S(=O)(=O)CCC(=O)N3CCN(c4ccc(Cl)cc4)CC3)ccc21` was run?
Answer: inactive: 93%

Question: With `COc1ccccc1NC(=O)CSc1nc2c(oc3ccccc32)c(=O)n1-c1ccccc1F` as the compound, how does the survival read?
Answer: inactive: 84%

Question: With `CCOC(=O)C1CCN(c2nc3ccccc3nc2Cl)CC1` as the compound, how does the survival read?
Answer: active: -26%

Question: For `COc1ccc(NC(=O)c2oc3ccccc3c2NC(=O)c2cc(C)cc(C)c2)c(OC)c1`, which survival is on record?
Answer: inactive: 79%

Question: How did the survival turn out when `O=C(CN1C(=O)c2cccc3cccc1c23)Nc1cccc(F)c1` was run?
Answer: inactive: 71%

Question: `CC(=O)Nc1cccc(NC(=O)CSc2nccn2C2CCCC2)c1` was tested. Which survival did it give?
Answer: inactive: 83%

Question: `Cc1cc(C)c(NC(=O)C(=O)NCC(c2cccnc2)N2CCN(c3ccccc3F)CC2)c(C)c1` (stereo not drawn) was tested. Which survival did it give?
Answer: inactive: 90%

Question: How did the survival turn out when `CCc1cccc(NC(=O)c2cc3c(s2)-c2ccccc2OC3)c1` was run?
Answer: inactive: 86%

Question: How did the survival turn out when `Cc1ccc(N(C(=O)c2ccco2)C(C(=O)NC2CCCC2)c2ccc(N(C)C)cc2)c(C)c1` (stereo not drawn) was run?
Answer: inactive: 115%

Question: Which survival does the source give for `CC1CCCN(CNC(=O)c2ccccc2)C1` (stereo not drawn) here?
Answer: inactive: 105%

Question: How did the survival turn out when `CN(Cc1ccccc1)c1ccc(-c2nc(-c3ccccc3)no2)cc1[N+](=O)[O-]` was run?
Answer: inactive: 103%

Question: For `C=Cc1ccc(Cn2c(C)c(CNCc3ccc(SC)cc3)c(C(=O)O)c2C)cc1`, which survival is on record?
Answer: inactive: 83%

Question: How did the survival turn out when `Cc1ccccc1NC(=O)CSC1=Nc2ccccc2C2=NC(Cc3ccccc3)C(=O)N12` (stereo not drawn) was run?
Answer: inactive: 77%

Question: With `Cc1ccc(OCc2nc(C#N)c(NCCc3ccccc3)o2)cc1` as the compound, how does the survival read?
Answer: active: -1%

Question: With `COC(=O)c1ccc2c(=O)n3nc(Nc4cc(OC)ccc4OC)sc3nc2c1` as the compound, how does the survival read?
Answer: inactive: 99%

Question: With `Cc1ccc2[nH]c(=O)c3cc(C(=O)N(CCCOC(C)C)Cc4ccco4)sc3c2c1` as the compound, how does the survival read?
Answer: inactive: 71%

Question: With `COc1ccc(Cl)cc1NC(=O)CSc1nnc2[nH]c(=O)cc(-c3ccccc3)n12` as the compound, how does the survival read?
Answer: inactive: 58%

Question: Which survival does the source give for `CCC(Sc1ncc(S(=O)(=O)c2ccc(Cl)cc2)c(=O)[nH]1)C(=O)Nc1ccc(OC)cc1` (stereo not drawn) here?
Answer: inactive: 96%

Question: Which survival does the source give for `O=C1CN(C(=O)COc2ccccc2)C(c2ccc(F)cc2)c2cc(Br)ccc2N1` (stereo not drawn) here?
Answer: inactive: 62%

Question: With `COC(=O)c1cc2sc(Cl)cc2n1CC(=O)Nc1cc(OC)cc(OC)c1` as the compound, how does the survival read?
Answer: inactive: 86%

Question: How did the survival turn out when `CCN=C1S/C(=C\c2cn(CC(=O)NCCOC)c3ccccc23)C(=O)N1CC` was run?
Answer: inactive: 95%

Question: `COc1ccc(OCC(=O)Nc2ccc(Cl)c(-c3nc4ncccc4o3)c2)cc1` was tested. Which survival did it give?
Answer: inactive: 140%

Question: `Cc1ccc(NC(=O)CCCn2c(=O)c3cccn3c3ccccc32)cc1Cl` was tested. Which survival did it give?
Answer: inactive: 91%

Question: How did the survival turn out when `CCCc1nn2c(=O)cc(COC(=O)C3CCCCC3)nc2s1` was run?
Answer: inactive: 72%

Question: How did the survival turn out when `COc1ccc(-c2nn(-c3ccc(F)cc3)c3c2cnc2ccc(F)cc23)cc1OC` was run?
Answer: inactive: 79%

Question: For `O=C(NCc1nc2ccccc2n1Cc1ccccc1Cl)c1ccccc1`, which survival is on record?
Answer: inactive: 90%

Question: How did the survival turn out when `COC(=O)c1ccccc1NC(=O)c1oc2ccc3c(c2c1C)C(=O)CC(C)(C)O3` was run?
Answer: inactive: 91%

Question: Which survival does the source give for `N#CCCn1nc(-c2ccccc2)c2ccccc2c1=O` here?
Answer: inactive: 115%

Question: `COCCn1c(SCC(=O)c2c(C)[nH]c3ccccc23)nc2cc(C(=O)NC(C)C)ccc2c1=O` was tested. Which survival did it give?
Answer: inactive: 74%

Question: `CCOc1ccc(CCNC(=O)Cn2ccc3cc(S(=O)(=O)N4CCCCC4)ccc32)cc1` was tested. Which survival did it give?
Answer: inactive: 73%

Question: With `CCOc1ccc2[nH]c(=O)c(CN(CCO)C(=O)Nc3ccc(OC)cc3)cc2c1` as the compound, how does the survival read?
Answer: inactive: 107%

Question: How did the survival turn out when `COc1cccc(CNC(=O)c2ccc3c(c2)N(Cc2ccc(F)cc2Cl)C(=O)c2ccccc2S3)c1` was run?
Answer: inactive: 19%

Question: For `Cc1ccc(Cl)cc1NC(=O)Nc1cn(CC(C)C)c(=O)c2ccccc12`, which survival is on record?
Answer: inactive: 91%

Question: `Cc1ccccc1CN1C(=O)c2ccccc2Sc2ccc(C(=O)NCc3ccccc3)cc21` was tested. Which survival did it give?
Answer: inactive: 32%

Question: Which survival does the source give for `O=C(Nc1ccccc1F)c1nc(SCc2ccccc2F)ncc1Cl` here?
Answer: inactive: 92%

Question: With `CCN(CCCNC(=O)c1cc(Nc2ccc(OC)cc2)nc2ccccc12)c1cccc(C)c1` as the compound, how does the survival read?
Answer: inactive: 85%

Question: Which survival does the source give for `CCOC(=O)c1ccc(NC(=O)CSc2nnc(-c3ccncc3)n2-c2ccccc2)cc1` here?
Answer: inactive: 75%

Question: With `Cc1ccc(-c2nc(S(=O)(=O)c3ccc(C)cc3)c(SCC(=O)c3ccccc3)o2)cc1` as the compound, how does the survival read?
Answer: inactive: 71%

Question: Which survival does the source give for `Cc1cccc(C)c1NC(=O)Cn1c(=O)n(Cc2ccccc2Cl)c(=O)c2cccnc21` here?
Answer: inactive: 83%

Question: Which survival does the source give for `CCN(C(=O)CSc1nc2ccccc2n1Cc1ccccc1C#N)c1ccccc1` here?
Answer: inactive: 72%

Question: `O=C(CN1CCOCC1)NNc1nc(-c2ccccc2)c2cc(Cl)ccc2n1` was tested. Which survival did it give?
Answer: inactive: 104%

Question: With `COc1ccc(-n2nc(C(=O)Nc3ccc(C)cn3)c3c4ccccc4n(C)c3c2=O)cc1Cl` as the compound, how does the survival read?
Answer: inactive: 75%

Question: How did the survival turn out when `Cc1ccc(-n2c(=O)[nH]c3cc(C(=O)NCCc4ccccc4)ccc3c2=O)cc1` was run?
Answer: inactive: 85%

Question: For `Cc1ccc2c(C)c(C(=O)NCC(c3ccc(Cl)cc3)N3CCOCC3)oc2c1` (stereo not drawn), which survival is on record?
Answer: inactive: 33%

Question: Which survival does the source give for `COc1cc(NC(=O)C2CCN(c3nnc(C)c4c(C)n(-c5ccccc5)nc34)CC2)cc(OC)c1` here?
Answer: inactive: 85%

Question: How did the survival turn out when `Cc1ccc(NC(=O)NC(C)c2c(-n3cccc3)sc(C)c2C)cc1F` (stereo not drawn) was run?
Answer: inactive: 74%

Question: How did the survival turn out when `Cc1ccc2c(c1)c(=O)c1ccccc1n2CCCC(=O)Nc1ccc(Cl)cc1C` was run?
Answer: inactive: 74%

Question: Which survival does the source give for `CCOC(=O)c1ccccc1NC(=O)c1cnn(-c2ccc(OC)cc2)c1C1CCN(C(=O)OC(C)(C)C)CC1` here?
Answer: inactive: 69%

Question: With `O=c1c2c3c(sc2ncn1CCn1cnc2sc4c(c2c1=O)CCCC4)CCCC3` as the compound, how does the survival read?
Answer: inactive: 111%

Question: `CCOc1ccc(CNC(=O)c2cnc3c(C)cccn3c2=O)cc1` was tested. Which survival did it give?
Answer: inactive: 73%

Question: Which survival does the source give for `O=C(O)CCC(=O)Nc1ccc(N2CCCCC2)c(C(=O)O)c1` here?
Answer: inactive: 100%

Question: How did the survival turn out when `N#C/C(=C\c1ccccc1F)c1nc2ccccc2c(=O)[nH]1` was run?
Answer: inactive: 78%

Question: For `c1ccc(Cc2[nH]nc3ccccc23)cc1`, which survival is on record?
Answer: inactive: 99%

Question: For `O=C(/C=C/c1ccccc1)Nc1nc(-c2cccs2)ns1`, which survival is on record?
Answer: inactive: 90%

Question: `CC(=O)c1ccc(NC(=O)CN2C(=O)CCc3cc(S(=O)(=O)N4CCC(C)CC4)ccc32)cc1` was tested. Which survival did it give?
Answer: inactive: 72%

Question: How did the survival turn out when `COc1cccc(NC(=O)CCc2nnc3n(CC(C)C)c(=O)c4ccccc4n23)c1` was run?
Answer: inactive: 92%

Question: How did the survival turn out when `Cc1cc(C)cc(NS(=O)(=O)c2ccc3[nH]cc(C(=O)NCc4ccco4)c(=O)c3c2)c1` was run?
Answer: inactive: 68%

Question: For `CCCn1ccc2c(OCC(=O)Nc3ccc(C(F)(F)F)cc3)cccc2c1=O`, which survival is on record?
Answer: inactive: 78%

Question: `O=C(Nc1ccc(Cl)c(C(F)(F)F)c1)c1cc2nc(-c3ccc4c(c3)OCO4)cc(C(F)(F)F)n2n1` was tested. Which survival did it give?
Answer: inactive: 82%

Question: `COc1ccc(NC(=O)CSc2n[nH]c(-c3ccccc3)n2)cc1Cl` was tested. Which survival did it give?
Answer: inactive: 79%

Question: `O=C(Nc1ccccc1F)c1oc2ccccc2c1NC(=O)C12CC3CC(CC(C3)C1)C2` was tested. Which survival did it give?
Answer: inactive: 121%

Question: `CCOc1ccccc1C(=O)Nc1cc2c(cc1N1CCCCC1)n(C)c(=O)n2C` was tested. Which survival did it give?
Answer: inactive: 99%

Question: With `CCC(O)c1nc2ccccc2n1CCOc1cc(C)cc(C)c1` (stereo not drawn) as the compound, how does the survival read?
Answer: inactive: 105%

Question: `CCOC(=O)c1noc2nc(C)n(CC(=O)Nc3ccc(Br)cc3C)c(=O)c12` was tested. Which survival did it give?
Answer: inactive: 121%

Question: For `COC(=O)N1N=C(C)CC1(O)c1ccc(Cl)cc1` (stereo not drawn), which survival is on record?
Answer: inactive: 129%

Question: How did the survival turn out when `CCOc1ccccc1N(CC)C(=O)c1cc2c(=O)n(CC)c3ccccc3c2s1` was run?
Answer: inactive: 123%

Question: With `N#CC1=C(N)SC(N)=C(C#N)C1c1cccs1` as the compound, how does the survival read?
Answer: inactive: 93%

Question: How did the survival turn out when `Cc1cc(Nc2cccc(C(F)(F)F)c2)nc2ccc(NC(=O)c3cncc(Br)c3)cc12` was run?
Answer: inactive: 128%

Question: `Cc1ccc(CN(C(=O)c2ccc([N+](=O)[O-])cc2)c2ccccn2)cc1` was tested. Which survival did it give?
Answer: inactive: 82%

Question: Which survival does the source give for `COC(CNS(=O)(=O)c1ccc(S(=O)(=O)NCc2ccccc2)cc1)OC` here?
Answer: inactive: 106%

Question: Which survival does the source give for `COc1ccc(OC)c(-n2cnc3cc(C(=O)NCCc4ccccc4)ccc32)c1` here?
Answer: inactive: 75%

Question: With `CC(C)OC(=O)c1c(NC(=O)c2cc3nc(-c4ccccc4)cc(C(F)(F)F)n3n2)sc2c1CCCC2` as the compound, how does the survival read?
Answer: inactive: 101%

Question: For `Cc1ccc(-c2nnc3ccccc3c2C(=O)Nc2cccc(C(F)(F)F)c2)cc1`, which survival is on record?
Answer: inactive: 120%

Question: For `Cc1ccc(OCC(=O)Nc2ccccc2C(=O)OCc2cc(=O)n3c(C)csc3n2)cc1`, which survival is on record?
Answer: inactive: 72%

Question: Which survival does the source give for `N#Cc1cc2c(=O)n3ccccc3nc2n(-c2nnc(SCc3ccccc3F)s2)c1=O` here?
Answer: inactive: 105%
